Measurements reported in the supplement of paper PMC7125110.
± gives the standard error. Variants at the floor of the assay are shown more often than the library holds them.

B1: glmS ribozyme (parent)
chain: AUAAAAGCGCCAGAACUACAGAAAUGUAGUUGACGAGGAGGAGGUUUAUCGAAUUUUCGGCGGAUGCCUCCAAA

Tests used:
Conditions in all cases: with glucosamine-6-phosphate
glucosamine-6-phosphate [1] = variants of: B1; experiment: self-cleavage kobs at 640 uM GlcN6P; higher = faster cleavage; RNA array
Summary of the method: (§1)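 Weighted Michaelis–Menten fits across concentrations supplied kcat and KM, based on kobs from one- or two-exponential decay fits to normalised per-tile medians. The data came from barcoded ribozyme variants transcribed in situ by E. coli RNA polymerase on sequenced MiSeq chips and tracked at 37 °C by a hybridised Cy3 probe. Glucosamine-6-phosphate (40 μM to 10 mM) in HEPES/KCl/Mg(OAc)2 buffer was flowed in.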

glucosamine-6-phosphate [2] = variants of: B1; experiment: self-cleavage kobs at 2500 uM GlcN6P; higher = faster cleavage; RNA array
Summary of the method: as §1

glucosamine-6-phosphate [3] = variants of: B1; experiment: self-cleavage kobs at 160 uM GlcN6P; higher = faster cleavage; RNA array
Summary of the method: as §1

glucosamine-6-phosphate [4] = variants of: B1; experiment: self-cleavage kobs at 10000 uM GlcN6P; higher = faster cleavage; RNA array
Summary of the method: as §1

Variant | self-cleavage kobs at 640 uM GlcN6P (glucosamine-6-phosphate [1]) | self-cleavage kobs at 2500 uM GlcN6P (glucosamine-6-phosphate [2]) | self-cleavage kobs at 160 uM GlcN6P (glucosamine-6-phosphate [3]) | self-cleavage kobs at 10000 uM GlcN6P (glucosamine-6-phosphate [4])
C34U G51C U54A | < 1e-05 s⁻¹ | < 1e-05 s⁻¹ | – | –
C34U U49A U55G C61U C68G | 0.000585 ± 0.00016 s⁻¹ | – | – | –
G35A A64G | < 1e-05 s⁻¹ | < 1e-05 s⁻¹ | < 1e-05 s⁻¹ | < 1e-05 s⁻¹
G35A G41U G51C | < 1e-05 s⁻¹ | – | – | –
G35A G44U U45G C71G | < 1e-05 s⁻¹ | < 1e-05 s⁻¹ | < 1e-05 s⁻¹ | –
G35A U55G | < 1e-05 s⁻¹ | < 1e-05 s⁻¹ | < 1e-05 s⁻¹ | –
G35C A39C U57C | < 1e-05 s⁻¹ | < 1e-05 s⁻¹ | – | –
G35C U47A A48C | < 1e-05 s⁻¹ | < 1e-05 s⁻¹ | – | –
G35U A39U G60U | < 1e-05 s⁻¹ | < 1e-05 s⁻¹ | – | –
G35U C67A U69C | < 1e-05 s⁻¹ | – | – | –
G35U C67U | < 1e-05 s⁻¹ | < 1e-05 s⁻¹ | < 1e-05 s⁻¹ | –
G35U G41A A64G | < 1e-05 s⁻¹ | < 1e-05 s⁻¹ | – | –
G35U G41U U56A | < 1e-05 s⁻¹ | < 1e-05 s⁻¹ | < 1e-05 s⁻¹ | < 1e-05 s⁻¹
G35U U56A | < 1e-05 s⁻¹ | – | < 1e-05 s⁻¹ | < 1e-05 s⁻¹
A36C A39G G62C | < 1e-05 s⁻¹ | – | – | –
A36C G66C | < 1e-05 s⁻¹ | – | < 1e-05 s⁻¹ | < 1e-05 s⁻¹
A36G G38C U49G U55G C58G G59U | < 1e-05 s⁻¹ | – | < 1e-05 s⁻¹ | –
A36G G38U U56G | < 1e-05 s⁻¹ | – | < 1e-05 s⁻¹ | –
A36G G40C | < 1e-05 s⁻¹ | < 1e-05 s⁻¹ | < 1e-05 s⁻¹ | –
A36G G40U | < 1e-05 s⁻¹ | – | < 1e-05 s⁻¹ | < 1e-05 s⁻¹
A36G U47G | < 1e-05 s⁻¹ | – | – | < 1e-05 s⁻¹
A36U C58U G66C | < 1e-05 s⁻¹ | – | – | –
A36U G60C | < 1e-05 s⁻¹ | < 1e-05 s⁻¹ | < 1e-05 s⁻¹ | < 1e-05 s⁻¹
A36U U55C U57A | < 1e-05 s⁻¹ | – | – | –
G37A A42G G43U | < 1e-05 s⁻¹ | < 1e-05 s⁻¹ | – | –
G37A G38C | < 1e-05 s⁻¹ | – | < 1e-05 s⁻¹ | < 1e-05 s⁻¹
